Test results: the supplement of paper PMC12217912
This is one part of the list. Sequences were assembled here from the parent chain. Values near 0.05 are background.

B1: TEV protease; numbered along this chain (parent)
chain: MGESLFKGPRDYNPISSSICHLTNESDGHTTSLYGIGFGPFIITNKHLFRRNNGTLVVQSLHGVFKVKDTTTLQQHLVDGRDMIIIRMPKDFPPFPQKLKFREPQREERICLVTTNFQTKSMSSMVSDTSCTFPSGDGIFWKHWIQTKDGQCGSPLVSTRDGFIVGIHSASNFTNTNNYFTSVPKNFMELLTNQEAQQWVSGWRLNADSVLWGGHKVFMVKPEEPFQPVKEATQL

Variants of: B1
Experiment: raw area under fraction-flipped curve 0-4 h after induction (AUC4h, not background-subtracted), DNA-recorder readout of cleavage of the substrate (dimensionless); higher = more cleavage of the substrate by the protease variant
Conditions: temperature: 34 °C; time window: 0-4 h after rhamnose induction
Experimental: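 In vivo DNA recorder in E. coli TOP10(DE3) ΔrhaA at 34 °C. Each TEVp single-site mutant (parent TEVp 0) is paired with a single-site variant of the 7-mer TEVs (canonical ENLYFQ|S). The substrate sits between flexible linkers in a Bxb1-sfGFP-TEVs-SsrA fusion, so cleavage stabilises Bxb1 and speeds flipping of a recombination array, read by NGS. The value is the raw area under the fraction-flipped curve over 0-4 h after rhamnose induction (AUC4h), with ≥20 reads per time point. It is not background-subtracted; inactive controls average about 0.047.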
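Further: Bxb1 expression induced with 0.2% (w/v) L-rhamnose at OD600 near 0.5, cultures sampled hourly, flipped fraction per protease–substrate barcode pair counted by paired-end Illumina sequencing.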

| Variant | area with substrate CNLYFQS | area with substrate FNLYFQS | area with substrate HNLYFQS | area with substrate INLYFQS | area with substrate KNLYFQS | area with substrate LNLYFQS | area with substrate PNLYFQS | area with substrate QNLYFQS | area with substrate RNLYFQS | area with substrate SNLYFQS | area with substrate TNLYFQS | area with substrate VNLYFQS | area with substrate WNLYFQS | area with substrate GNLYFQS | area with substrate MNLYFQS | area with substrate NNLYFQS | area with substrate YNLYFQS |
| --- | --- | --- | --- | --- | --- | --- | --- | --- | --- | --- | --- | --- | --- | --- | --- | --- | --- |
| R109V | 0.0557 | 0.0591 | 0.0649 | 0.0599 | 0.058 | 0.063 | 0.0234 | 0.075 | 0.071 | 0.052 | 0.0382 | 0.112 | 0.0666 |  |  |  |  |
| A196S | 0.041 |  | 0.0506 | 0.0715 | 0.0576 | 0.0621 | 0.0648 | 0.0612 |  | 0.0646 | 0.0751 | 0.0067 | 0.0605 | 0.0641 | 0.0735 | 0.0566 |  |
| W212C | 0.0512 |  |  |  | 0.085 | 0.0337 | 0.0714 |  |  | 0.0949 | 0.0578 |  | 0.0294 |  |  |  |  |
| I145M | 0.0449 | 0.0747 | 0.0528 |  | 0.0552 | 0.0545 | 0.0691 | 0.0513 |  |  |  |  | 0.0558 | 0.0634 | 0.0604 | 0.0486 |  |
| T70P | 0.0608 |  | 0.0604 | 0.0541 | 0.054 | 0.02 | 0.0662 |  |  | 0.0587 |  | 0.0388 | 0.056 | 0.0574 | 0.0736 | 0.0582 |  |
| F92D | 0.0524 |  |  |  | 0.0522 |  | 0.0523 |  |  | 0.0496 |  |  | 0.0476 |  | 0.0714 |  |  |
| S123R | 0.0825 |  | 0.0723 |  |  | 0.0633 |  |  |  |  | 0.0591 |  | 0.0577 |  | 0.0603 |  | 0.0607 |
| S123C | 0.0715 | 0.0609 | 0.0588 |  |  | 0.0599 | 0.0574 |  |  |  | 0.064 | 0.0611 | 0.0649 |  | 0.0596 | 0.0632 | 0.0713 |
| R50G | 0.0552 | 0.0591 | 0.0514 | 0.0633 | 0.0766 | 0.0665 | 0.0597 |  |  |  | 0.0638 | 0.0763 | 0.0509 |  |  |  |  |
| N175I | 0.0614 | 0.0549 | 0.0731 | 0.0557 | 0.0721 |  | 0.0516 |  |  |  | 0.0607 | 0.0784 | 0.0528 |  |  | 0.0562 | 0.0676 |
| L61R | 0.0799 | 0.101 | 0.0612 | 0.0691 | 0.0702 | 0.0695 |  |  |  | 0.0835 | 0.0644 | 0.0739 | 0.0562 | 0.0971 |  |  | 0.069 |
| L61P | 0.0653 |  | 0.0618 | 0.0266 | 0.0816 |  | 0.0681 |  |  |  | 0.109 | 0.0716 | 0.0625 | 0.0814 | 0.0629 |  | 0.0677 |
| N53Y | 0.0713 |  |  | 0.0742 | 0.0422 | 0.0601 | 0.0666 |  | 0.0557 | 0.0645 | 0.0571 | 0.0615 | 0.0661 | 0.0966 | 0.0619 | 0.06 |  |
| R10Y | 0.0511 |  | 0.0698 | 0.061 | 0.0446 | 0.0638 |  |  |  | 0.0572 | 0.0613 | 0.062 | 0.0619 | 0.0584 | 0.0565 |  |  |
| P228M | 0.105 | 0.0623 |  |  | 0.0627 | 0.0521 |  |  |  |  | 0.0607 |  |  |  |  | 0.0572 | 0.0607 |
| P228G | 0.0731 |  | 0.0629 | 0.068 |  |  | 0.0694 |  |  |  | 0.0476 |  |  | 0.0647 | 0.0706 |  |  |
| E231F | 0.0656 | 0.0635 | 0.0532 |  |  |  |  |  | 0.0519 |  |  |  | 0.0647 |  | 0.0608 |  |  |
